Laboratory results taken from publication PMC4336329 (PLoS ONE, 2015).
The campaign covered roughly 310,000 compounds. About 14,000 (4.5%) showed an effect of 50% or more. Effects have a minus sign here. The list shows a part of the results.

Biological target: human ether-à-go-go-related gene (hERG) potassium channel (human, UniProt Q12809)
Test: primary screen, population patch clamp on CHO cells stably expressing hERG
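Further: peak tail current of the secondary pulse compared with the same well before compound.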

human ether-à-go-go-related gene (hERG) potassium channel, sequence (Q12809 whole entry, looked up): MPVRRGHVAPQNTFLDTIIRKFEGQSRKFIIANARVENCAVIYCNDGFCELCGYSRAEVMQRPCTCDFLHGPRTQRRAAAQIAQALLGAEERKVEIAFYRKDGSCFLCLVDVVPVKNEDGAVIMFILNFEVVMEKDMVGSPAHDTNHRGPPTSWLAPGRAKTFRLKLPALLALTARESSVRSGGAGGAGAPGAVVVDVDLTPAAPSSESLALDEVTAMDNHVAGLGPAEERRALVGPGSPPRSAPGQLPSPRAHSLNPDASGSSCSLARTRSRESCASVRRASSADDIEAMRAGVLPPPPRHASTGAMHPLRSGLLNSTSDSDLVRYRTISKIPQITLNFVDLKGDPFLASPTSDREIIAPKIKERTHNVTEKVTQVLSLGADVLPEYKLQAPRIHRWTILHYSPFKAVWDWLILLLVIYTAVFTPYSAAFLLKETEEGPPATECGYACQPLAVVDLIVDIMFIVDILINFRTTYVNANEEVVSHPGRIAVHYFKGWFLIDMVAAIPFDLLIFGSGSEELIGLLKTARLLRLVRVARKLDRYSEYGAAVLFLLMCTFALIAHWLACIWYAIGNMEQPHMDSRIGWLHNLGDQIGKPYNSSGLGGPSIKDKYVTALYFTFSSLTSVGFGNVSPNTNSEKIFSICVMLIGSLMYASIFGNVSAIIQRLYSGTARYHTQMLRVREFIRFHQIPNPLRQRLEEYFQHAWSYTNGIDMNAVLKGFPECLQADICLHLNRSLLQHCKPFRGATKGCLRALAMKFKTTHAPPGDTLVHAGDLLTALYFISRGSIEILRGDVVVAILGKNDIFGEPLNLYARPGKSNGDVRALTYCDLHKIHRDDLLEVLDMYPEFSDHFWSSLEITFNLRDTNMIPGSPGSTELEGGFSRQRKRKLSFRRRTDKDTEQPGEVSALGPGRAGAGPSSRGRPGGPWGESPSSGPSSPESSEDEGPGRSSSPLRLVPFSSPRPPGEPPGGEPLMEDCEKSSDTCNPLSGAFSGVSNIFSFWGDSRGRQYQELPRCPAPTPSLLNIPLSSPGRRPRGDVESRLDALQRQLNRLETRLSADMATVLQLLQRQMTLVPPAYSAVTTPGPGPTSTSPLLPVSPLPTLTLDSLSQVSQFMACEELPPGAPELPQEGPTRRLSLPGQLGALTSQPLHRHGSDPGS

In order of falling “hERG current change (%, negative = inhibition) at 10uM” value:
1. CCN1C(=O)CC(c2cccnc2)=Nc2ccccc21  32.2%
2. COc1ccc(NC(=S)NNC(=O)c2ccc(S(=O)(=O)N3CCOCC3)cc2)cc1  28.9%
3. CCNC(=O)NC(=O)C(C)OC(=O)Cc1coc2cc3c(cc12)CCC3 (centres unmarked)  26.6%
4. COc1ccc(-c2cc(C(F)(F)F)nc(SCC(=O)Nc3cc(C)on3)n2)cc1  23.5%
5. O=C(Cn1cnc([N+](=O)[O-])n1)c1ccc(O)c(O)c1  22.6%
6. O=C1OC(c2ccccc2)/C(=C(/O)c2ccc(Cl)cc2)C1=O (centres unmarked)  21.3%
7. CN1C(=O)/C(=C/c2ccc(Cl)s2)C(=O)NC1=S  21.2%
8. Cc1ccc2nc(-c3ccc(NC(=O)COCC(=O)O)cc3)sc2c1  20.7%
9. COc1ccc(COc2cccc3ccc(C)nc23)cc1F  19.8%
10. CCc1cccc(NC(=O)NC2CCCCC2)c1  18%
11. CCCN(c1ccc(OCC)cc1)S(=O)(=O)c1ccc2c(c1)NC(=O)CO2  17.4%
12. COc1cc(C(=O)NCc2nnc(SCC(=O)N3CCOCC3)o2)cc(OC)c1OC  17.2%
13. COc1cc(/C=C/c2ccc3c(Br)cc(Br)c(O)c3n2)ccc1O  17.2%
14. CCOC(=O)CSc1nc(N)c(C#N)c(-c2ccc(OC)cc2)c1C#N  17.2%
15. COC(=O)N1C(=O)[C@](c2ccsc2)(C(C)C)N1C(=O)OC  17%
16. CC(=O)Oc1ccc(/C=C2/Oc3ccccc3C2=O)cc1  16.1%
17. N/C(=N\N=C\c1ccc([N+](=O)[O-])cc1)c1nonc1N  16.1%
18. Cc1ccc(S(=O)(=O)NCCn2nc(C)cc2C)cc1  16.1%
19. O=S(=O)(/N=C(/NNS(=O)(=O)c1ccccc1)c1ccccc1)c1ccccc1  15.9%
20. Cc1ccc(-c2csc(NC(=O)c3cc([N+](=O)[O-])ccc3N3CCOCC3)n2)cc1  15.4%
21. CN(CC(=O)Nc1ccc(Cl)c(C(F)(F)F)c1)C(=O)c1cccnc1Sc1ccccc1  15.1%
22. O=C(NCc1ccco1)C1CCCN1C(=O)Nc1ccccc1Cl (centres unmarked)  14.7%
23. Cn1nccc1C(=O)Nn1cnnc1  14%
24. CC(C)Cc1c(O)nc(SCC(=O)N2CCCCCC2)[nH]c1=O  12.2%
25. Fc1ccc(C2CC(c3ccco3)=Nc3ccccc3S2)cc1 (centres unmarked)  12.1%
26. CN(C(=O)COC(=O)c1ccc2c(c1)OCO2)c1c(N)n(Cc2ccccc2)c(=O)[nH]c1=O  11.6%
27. CC(/C=C/c1ccc2c(c1)OCO2)=N/NC(=O)CNc1ccc(C)cc1  11.3%
28. CCCCCC(O)(c1ccc(OCC)cc1)C(CN1CCOCC1)c1ccccc1.Cl (centres unmarked)  11.1%
29. FC(F)(F)c1nnc2ccc(N3CCOCC3)nn12  11%
30. O=C(O)/C=C\C(=O)Nc1ccccc1C(=O)NC1CCCCC1  10.8%
31. CCOC(=O)C(Cc1ccccc1)C(=O)NCc1ccccc1 (centres unmarked)  10.8%
32. COc1ccc2[nH]c3c(N4CCc5ccccc5C4)ncnc3c2c1  10.2%
33. CCOc1ccc(-n2ccnc(SCC(=O)Nc3ccc(OC)cc3OC)c2=O)cc1  9.58%
34. COc1cccc(C2/C(=C(\O)c3ccc4c(c3)OCCO4)C(=O)C(=O)N2CCCN2CCOCC2)c1OC (centres unmarked)  9%
35. O=C(N/N=C/c1ccc(C(=O)O)cc1)C(=O)N1CCCCCC1  8.92%
36. CCOc1ccccc1C(=O)NCCC(=O)O  8.38%
37. Cc1ccccc1-c1nnc(-c2ccc(Br)cc2)o1  7.83%
38. COc1ccc(CCC(=O)N/N=C\c2cccs2)cc1  7.5%
39. COc1cc(C(=O)Nc2cc(C(F)(F)F)ccc2Cl)cc(OC)c1OC  7.4%
40. COc1ccc(NC(=O)Nc2ccc3c(c2)CCC3)c(OC)c1  7.3%
41. Cn1nc(C(F)(F)F)cc1C(=O)Nc1ccc(Cl)cc1  3.41%
42. O=C1NCC(=O)N2C(c3ccccc3)c3[nH]c4ccccc4c3C[C@@H]12 (some centres unmarked)  3.26%
43. O=C(Nc1nnc(COc2ccc(F)cc2)s1)c1cccs1  3.06%
44. CC(C)c1ccc(C(=O)CSc2n[nH]c(-c3ccncc3)n2)cc1  2.85%
45. CCOC(=O)COc1ccc2c(=O)cc(-c3ccccc3)oc2c1  2.54%
46. O=C1c2cccc(O)c2C(=O)c2c(O)cccc21  2.23%
47. COC(=O)N[C@H](c1ccccc1)[C@@]1(C)C[C@@H]1[C@@H](C)C(=O)Nc1ccc2ccccc2c1  2.1%
48. CC(C)Cc1cc(C(=O)O)c2ccccc2n1  0.924%
49. Cc1cccc(/C=N/NC(=O)c2ccc(NC(=O)c3ccccc3C)cc2)n1  0.216%
50. CSc1ccccc1NC(=O)CN(C)CC(=O)c1c(C)[nH]c2ccccc12  -0.896%
51. COc1cccc2c1OC[C@@H](CO)[C@H]2N(C)C(=O)Nc1ccccc1  -1.26%
52. O=C(N/N=C1\CCCc2ccccc21)c1cccc(Br)c1  -2.72%
53. CC(=O)c1c(N2CCOCC2)nc2ccc(Cl)cc2c1-c1ccccc1  -2.85%
54. O=C(Nc1ccccn1)C12CC3CC(C1)CC(C(=O)Nc1ccccn1)(C3)C2  -2.89%
55. O=C(Nc1ccccc1C(=O)N1CCCCC1)c1cccs1  -3.06%
56. COc1cc(NC(=O)c2ccco2)c(OC)cc1NC(=O)CCC(=O)Nc1cc(C)ccc1C  -3.12%
57. O=c1ccccn1Cc1c(F)cccc1Cl  -3.93%
58. Cc1ccc(S(=O)(=O)CCC(=O)OCC(=O)NCCc2ccccc2)cc1  -4.22%
59. Cc1cc2cc(CNS(=O)(=O)c3ccccc3)ccc2n1C  -5.19%
60. CC(C)C(NC(=O)c1ccc(C(C)(C)C)cc1)C(=O)N1CCC(C(N)=O)CC1 (centres unmarked)  -5.72%
61. CCOc1cc(/C=N/O)ccc1OCc1ccccc1F  -6%
62. CCOC(=O)CC(=O)Nc1ccccc1C(=O)O  -6.16%
63. COCCNC(=O)CN(c1cc(Cl)ccc1OC)S(C)(=O)=O  -6.69%
64. CCOC(=O)C1CCN(C(=O)CN(c2ccc3c(c2)OCO3)S(C)(=O)=O)CC1  -7.12%
65. CCOC(=O)C1=C(C)NC(C)=C(C(=O)OC)C1c1cccc(Cl)c1Cl (centres unmarked)  -7.89%
66. CN(c1cccc2cccnc12)S(=O)(=O)c1ccccc1  -8.43%
67. CCOc1ccc(Cc2c(C)[nH]c3ccc(C(=O)O)cc3c2=S)cc1  -9.2%
68. CC(SCc1ccccc1)C(=O)N/N=C/c1ccc2c(c1)OCO2 (centres unmarked)  -9.27%
69. Cc1cccc(N(Cc2ccccc2)C(=O)c2ccc(CS(C)(=O)=O)cc2)c1  -9.49%
70. CC(=O)OCc1cc2cccc(C)c2[nH]c1=O  -9.76%
71. CCCCN1CC(C(=O)NCc2ccc(C)cc2)CC1=O (centres unmarked)  -11.7%
72. O=c1[nH]cccc1-c1nc2cc(Cl)ccc2n1Cc1ccccc1  -12%
73. COCCCn1c(SCC(=O)Nc2ccc(NC(=O)c3ccco3)c(OC)c2)nc2ccccc2c1=O  -12.4%
74. Cn1cccc1C(=O)c1ccc(Cl)cc1Cl  -15.4%
75. CCN(CC)S(=O)(=O)c1ccc(C)c(NC(=S)NC2CCCCC2)c1  -18.1%
76. O=C(NCCCN1CCOCC1)c1cccc(NS(=O)(=O)c2ccc(Br)cc2)c1  -19.9%
77. Cc1cccc(OCc2nnc(SCn3nnc4ccccc4c3=O)o2)c1  -22.4%
78. CN(C)CCCN(C(=O)c1cccc(N2C(=O)CCC2=O)c1)c1nc2cc3c(cc2s1)OCO3.Cl  -24%
79. CC(NC(=O)C1CCN(C(=O)[C@@H]2Cc3ccccc3CN2)CC1)c1ccccc1 (some centres unmarked)  -25.7%
80. Cn1c(=NC(=O)CN2C(=O)C3CC=CCC3C2=O)sc2ccccc21 (centres unmarked)  -26.9%
81. CCOc1ccc(CCNC(=O)COC(=O)c2cccc(S(=O)(=O)N3CCCCC3)c2)cc1OCC  -27.4%
82. CC1CC(C)CN(C2CCCCC2NS(=O)(=O)c2ccc(Cl)cc2)C1 (centres unmarked)  -30.9%
83. Cc1ccc(OCCC(=O)OC(C)C(=O)Nc2ccc(Cl)cn2)cc1 (centres unmarked)  -35.2%
84. Cc1nn(-c2ccccc2)c(C)c1NC(=O)COC(=O)c1cccc(OC(F)F)c1  -38.1%
85. C=CCn1c(SC(C)C#N)nc2sc(CC)cc2c1=O (centres unmarked)  -41.2%
86. O=C(COc1cccc(Br)c1)Nc1ccc(N2CCOCC2)cc1N1CCOCC1  -50.6%
87. O=C(NCc1cccc(Br)c1)c1cc(-c2ccccc2)nn1CC1CC(c2cccnc2)=NO1 (centres unmarked)  -62.8%
88. CN1CCN(CC(=O)Nc2ccccc2Sc2ccccc2)CC1.O=C(O)C(=O)O  -65.3%
89. CC1CCCN(CC(=O)Nc2ccc(S(=O)(=O)N3CCCCCC3)cc2)C1 (centres unmarked)  -66.8%
